# Experimental data: PubChem BioAssay AID651820 (National Center for Advancing Translational Sciences (NCATS), 2012)
# Values joined by “and” are separate entries in the source; they are usually repeats but may differ in a detail not shown here. Equal entries are not always repeated. Among all 340,000 compounds or so, about 12,000 (3.5%) were called active. Inconclusive results, whose numbers are uncertain, are shown with a selection of clear calls. Calls come from the whole dose curve; as a rule, active = well fitted inhibition curve with a large enough effect; inconclusive = small, poorly fitted or top-dose-only effect, or another doubt; inactive = no such curve, though single readings can be large or run the other way. Where the call is inconclusive, the potency comes from a doubtful curve fit.
# Assay: qHTS Assay for Inhibitors of Hepatitis C Virus (HCV)
# Conditions: Huh7.5.1 HCVcc-Cre (HCVcc is cell-culture hepatitis C virus) infection, luciferase reporter, 44 h; activity change, negative = inhibition: at 41.8 µM (top of the series) unless noted
# How it was run: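 Reporter virus HCVcc-Cre (~0.5 moi) infects cells exposed to compound; seeding density 1,000 cells/well with 4 h settling beforehand. Luminescence, 15 sec read, taken 44 h post-infection following a 15 min RT substrate incubation.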
# % is set by controls: 0 for no effect and ±100 for the full control effect; potency is the fitted concentration of half-maximal effect; tags give direction and shape of the fitted curve.
Compound,"activity change, negative = inhibition",Potency
O=C1Nc2ccccc2Oc2cc([N+](=O)[O-])ccc21,inactive: -10.5%,–
O=C(O)COc1ccccc1C(Nc1ccccn1)c1cc(Cl)c2cccnc2c1O (stereo not drawn),inactive: -1.2%,–
CC(=O)N=C1C=CC(=CN(O)C(C)(C)Cc2ccccc2)C=C1,–,"inconclusive: 2.24 µM [inhibitor, partial curve, poor fit]"
Cc1nn(CCCC(=O)Nc2cc(Oc3ccccc3)cc([N+](=O)[O-])c2)c(C)c1[N+](=O)[O-],–,"inconclusive: 31.6 µM [inhibitor, single point]"
CC1(C)N([O-])C(c2ccccc2)=C[N+](=O)C1(C)C,inactive: 5.98%,–
CCN(CC)S(=O)(=O)c1ccc(NC(=O)c2ccc(OCC3CCCO3)cc2)cc1 (stereo not drawn),–,active: 6.31 µM
COc1ccc(-c2csc(NC(=O)c3cc(-c4cccs4)nc4ccccc34)n2)c(OC)c1,inactive: 22.6%,–
O=C(Nc1ccc2c(c1)OCCO2)c1cc(-c2ccccn2)nc2ccc(Br)cc12,inactive: -29.1%,–
O=C(COC(=O)C1COc2ccccc2O1)NC(=O)Nc1ccc2c(c1)OCCO2 (stereo not drawn),inactive: 15.5%,–
CC1CCCCC1NC(=O)/C(C#N)=C/c1ccccc1F (stereo not drawn),–,"inconclusive: 22.4 µM [inhibitor, single point]"
c1ccc(-c2nccc(-c3ccc(-n4cnc5ccccc54)cc3)n2)nc1,–,"inconclusive: 14.1 µM [inhibitor, single point]"
CS(=O)(=O)c1ccc(S(=O)(=O)N2CCC(CO)(CCCc3ccccc3)CC2)cc1,inactive: -22.2%,–
COc1cc(C2C=C(Nc3ccccc3)C(=O)N2c2ccccc2)ccc1O (stereo not drawn),–,"inconclusive: 22.4 µM [inhibitor, single point]"
C/C(N)=C(/C#N)C(=O)CSc1nnc(SCc2ccc(Cl)cc2)s1,–,"inconclusive: 25.1 µM [inhibitor, single point] and inconclusive: 10 µM [inhibitor, partial curve]"
c1ccc(C2(Cn3ccc4ccccc43)OCCO2)cc1,–,"inconclusive: 2 µM [inhibitor, partial curve]"
CCOc1cc(N2CCOCC2)c(OCC)cc1NC(=O)C1CC(=O)N(c2ccc(C)cc2)C1 (stereo not drawn),inactive: 4.03%,–
CC1=CC(C)=Nc2ccc(C)cc2N1,–,inactive
CCOc1ccccc1NC(=O)NC1CCCc2ccccc21 (stereo not drawn),–,"inconclusive: 2.24 µM [inhibitor, full curve]"
Clc1cccc(-c2nnc(-c3ccccc3)o2)c1,–,"inconclusive: 5.01 µM [inhibitor, single point]"
CCOC(=O)CNC(=O)CSc1nnc(-c2ccccc2)n1Cc1ccco1,inactive: 8.08%,–
CC(=O)C(=Nc1ccccc1Cl)NNc1ccc(Cl)cc1,–,"inconclusive: 3.55 µM [inhibitor, full curve, poor fit]"
CC(C)(C)c1ccc(NC(=O)CSc2n[nH]c(=O)n2C2CC2)cc1,–,"inconclusive: 20 µM [inhibitor, single point]"
CCOC(=O)c1c(C)oc2ccc(OS(C)(=O)=O)cc12,–,"inconclusive: 10 µM [inhibitor, partial curve]"
CSc1ccc(Cl)c(C(=O)N2CCOc3ccccc32)c1,inactive: -3.09%,–

Compound,"activity change, negative = inhibition",Potency
Cc1ccc(C)c(-n2nnnc2Sc2nnnn2-c2ccccc2)c1,–,active: 11.2 µM
CCN(CC)c1ccc(NC(=O)C2=CCN(S(=O)(=O)c3ccc(F)cc3)CC2)c(C)c1,–,"inconclusive: 22.4 µM [inhibitor, partial curve]"
Oc1ccccc1/C=N/n1c2ccccc2c2ccccc21,–,"inconclusive: 2 µM [inhibitor, full curve]"
CCC(C)CNC(=O)c1cccc(OC2CCN(CC(C)(C)C)CC2)c1 (stereo not drawn),–,"inconclusive: 31.6 µM [inhibitor, single point]"
Cc1cc(C)n(C(=O)/C(C#N)=N/Nc2cc(Cl)cc(Cl)c2)n1,–,active: 10 µM
Cc1ccc(NC(=O)C2CCN(S(C)(=O)=O)CC2)cc1Cl,inactive: 0.976%,–
CCOC(=O)c1c(NC(=O)C2CC2)sc2c1CC(C)(C)OC2,–,"inconclusive: 5.62 µM [inhibitor, partial curve]"
CCCc1cc(=O)n2nc(N3CCC(C(=O)N4CCN(c5ccc(OC)cc5)CC4)CC3)sc2n1,–,"inconclusive: 5.62 µM [inhibitor, single point]"
CN(C)c1ccc(/C=N\NC(=S)SCN2C(=O)C3CCC(C)(C2=O)C3(C)C)cc1 (stereo not drawn),–,"inconclusive: 31.6 µM [inhibitor, single point]"
CCCCCCOc1ccc(C(=O)NCCCn2ccnc2)cc1,–,"inconclusive: 5.62 µM [inhibitor, full curve, poor fit]"
O=C(Nc1ccc(Oc2ccccc2)cc1)C1CCN(c2ncccn2)CC1,–,"inconclusive: 5.62 µM [inhibitor, single point]"
CCOC(=O)c1c(N)sc2c(O)c(Br)ccc12,–,"inconclusive: 14.1 µM [inhibitor, partial curve]"
Cc1cc(C)n2nc(SC(C)C(=O)Nc3ccccc3F)nc2n1 (stereo not drawn),inactive: -7.3%,–
CCOc1ccc(N2C(=O)S/C(=C\c3ccc(O)c(OCC)c3)C2=O)cc1,–,"inconclusive: 6.31 µM [inhibitor, partial curve]"
O=C(/C=C/c1ccc2c(c1)OCO2)Nc1c(C(=O)O)[nH]c2ccccc12,inactive: 2.23%,–
CCc1cc2c(N3CCN(c4ccccc4)CC3)ncnc2s1,–,active: 8.91 µM
Cc1ccc(C)c(S(=O)(=O)N2CCN(C(=O)[C@@H]3CCCN3C(=O)c3cccs3)CC2)c1,–,"inconclusive: 0.355 µM [inhibitor, full curve, poor fit]"
CC(c1ccccc1)n1c(-c2cccs2)nc2c(c(=O)c3ccccc3n2C)c1=O (stereo not drawn),–,active: 14.1 µM
CCCN1C(=O)/C(=C/c2ccc(OCC(=O)OCC)cc2)NC1=S,inactive: -11%,–
C=CCNS(=O)(=O)c1ccc(C(=O)OCc2cc(=O)oc3cc(OC)ccc23)cc1,–,"inconclusive: 7.94 µM [inhibitor, partial curve]"
Fc1ccc(Nc2nc(N3CCOCC3)c3ccccc3n2)cc1,inactive: -3.66%,–
Cc1n[nH]c(=O)n1-c1ccc(OCc2ccccc2)cc1,inactive: 16.7%,–
COc1ccc(C(=O)CC(=O)C(=O)Nc2ccc(C)c(C)c2)cc1,inactive: -12.1%,–
CN(CC(=O)Nc1ccc(F)c(F)c1F)C(=O)c1nn(Cc2ccccc2)c(=O)c2ccccc12,–,"inconclusive: 0.562 µM [inhibitor, partial curve, poor fit]"
